The target of the assay is Flag-LC3B wild type (F; 1-125 amino acids) (human, UniProt Q9GZQ8). The assay is described as follows: pull-down + co-IP; in vitro binding assay; 1 µg of each purified protein incubated at 4 °C overnight, immunoprecipitated with an anti-Flag antibody or pulled down with Ni-NTA resin; western blot. As to conditions: both partners purified. For orientation: Immunoblotting shows a protein as a band on a membrane.

B1: His-VHL-Y98H (natural protein)
chain: not shown
notes: von Hippel-Lindau protein (VHL) with the LIR motif point mutation Y98H; source: E. coli BL21 (DE3), purified (Ni-NTA)
As for B1, the binding result was “binds”.

The record behind these values is publication PMC6430800, “Ubiquitination of MAP1LC3B by pVHL is associated with autophagy and cell death in renal cell carcinoma” (Cell Death & Disease, 2019).
